Results: publication PMC7782513
No constants are given. Whether binding was seen depends on the method and setting. For some assays here: Binding seen in cells or lysates may run through a third protein. Some binding calls cover weakened binding; strength is not graded here.

The chains behind the UniProt entries cited, without tags or fusion partners. Where a name states a change or a piece, a line headed by the entry shows the natural chain unless it says otherwise. A line that says so, or that is headed by a name, gives the form on record, which may keep a tag or linker.
UniProt P48431: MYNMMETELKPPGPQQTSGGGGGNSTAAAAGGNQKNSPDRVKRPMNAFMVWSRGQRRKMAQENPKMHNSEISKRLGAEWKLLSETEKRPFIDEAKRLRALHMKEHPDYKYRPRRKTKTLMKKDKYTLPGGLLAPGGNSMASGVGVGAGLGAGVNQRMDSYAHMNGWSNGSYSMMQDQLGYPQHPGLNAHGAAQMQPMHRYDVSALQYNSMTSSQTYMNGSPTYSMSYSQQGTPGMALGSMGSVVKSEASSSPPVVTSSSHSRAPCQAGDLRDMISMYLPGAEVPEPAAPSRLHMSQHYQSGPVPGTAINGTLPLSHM
His-tagged SOX2 K42A, R43A, K115A triple mutant (SOX2x3Mut) (P48431, form named): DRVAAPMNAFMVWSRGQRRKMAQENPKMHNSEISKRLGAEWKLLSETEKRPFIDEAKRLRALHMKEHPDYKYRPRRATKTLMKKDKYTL
UniProt O00629: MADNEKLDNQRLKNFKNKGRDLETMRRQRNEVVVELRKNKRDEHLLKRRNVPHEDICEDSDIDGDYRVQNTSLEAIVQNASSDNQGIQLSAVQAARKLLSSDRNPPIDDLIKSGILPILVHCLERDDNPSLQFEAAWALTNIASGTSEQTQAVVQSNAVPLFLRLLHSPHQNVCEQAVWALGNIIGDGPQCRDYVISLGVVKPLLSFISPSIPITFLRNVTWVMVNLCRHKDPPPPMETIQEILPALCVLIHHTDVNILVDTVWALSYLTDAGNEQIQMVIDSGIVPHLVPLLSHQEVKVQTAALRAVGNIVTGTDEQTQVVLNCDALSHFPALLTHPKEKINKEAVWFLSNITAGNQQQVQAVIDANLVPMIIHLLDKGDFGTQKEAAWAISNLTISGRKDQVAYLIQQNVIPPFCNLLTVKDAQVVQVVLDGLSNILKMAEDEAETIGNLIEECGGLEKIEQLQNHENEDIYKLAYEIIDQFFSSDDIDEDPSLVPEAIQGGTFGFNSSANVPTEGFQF

Legend:
[1] = molecular target: HA-tagged full length SOX2 (human) (UniProt P48431); experiment: co-IP; HEK293T cells co-transfected with Flag-tagged importin and HA-tagged SOX2; anti-HA agarose, NP-40 lysis buffer (280 mM NaCl), ten washes, eluted with HA peptide; blots for HA and Flag
[2] = molecular target: His-tagged SOX2 K42A, R43A, K115A triple mutant (SOX2x3Mut) (human) (UniProt P48431); experiment: pull-down; 10 µM His-tagged SOX2 or mutant immobilised on Ni-NTA resin, 20 µM IMPα in 300 µL; washed three times with 50 mM phosphate pH 8.0, 300 mM NaCl, 20 mM imidazole; eluted through TEV cleavage; SDS-PAGE; both purified
[3] = molecular target: His-tagged SOX2 K42A, R43A, K115A triple mutant (SOX2x3Mut) (human) (UniProt P48431); experiment: MST; labelled SOX2 at 50 nM (his-tag labelling kit RED-tris-NTA), unlabelled importins titrated; 20 mM HEPES, 150 mM NaCl, pH 8.0; 25 °C; single binding model; both purified
[4] = molecular target: HA-tagged full length SOX2x3Mut (K42A, R43A, K115A) (human) (UniProt P48431); experiment: co-IP; HEK293T cells co-transfected with Flag-tagged importin and HA-tagged SOX2; anti-HA agarose, NP-40 lysis buffer (280 mM NaCl), ten washes, eluted with HA peptide; blots for HA and Flag

Row | binding [1] | binding [2] | binding [3] | binding [4] | Substance
1 | no binding |  |  |  | Flag-tagged IMPα7 (from UniProt O60684 1-536)
2 |  | no binding (tested: 20 µM of IMPα) | no binding |  | IMPα3 lacking the IMPβ-binding domain (residues 64-521) (from UniProt O00629 64-521) (domain or fragment)
3 | binds |  |  | no binding | Flag-tagged IMPα3 (from UniProt O00629 1-521)
